Experimental data reported in patent US11965038B2, “Pharmaceutical composition comprising antibody binding specifically to lysyl-tRNA synthetase N-terminus as effective ingredient for preventing or treating immune cell migration-related disease” (Zymedi Co., Ltd., priority 2017, dated 2024).
Numbering of substitutions follows the chain as printed.

B1: N3-8-6: N3-8 derivative antibody; HC SEQ ID NO: 105, LC SEQ ID NO: 115 (antibody)
heavy: EVQLLESGGGLVQPGGSLRLSCAASGFTFSSYDMSWVRQAPGKGLEWVSAISPYSGRIYYADSVKGRFTISRDNSKNTLYLQMNSLRAEDTAVYYCARLALDFDYWGQGTLVTVSS[human IgG1 constant region not shown]
light: QSVLTQPPSASGTPGQRVTISCTGSSSNIGSNYVTWYQQLPGTAPKLLIYRNNQRPSGVPDRFSGSKSGTSASLAISGLQSEDEADYYCSSFSDELGAYVFGGGTKLTVLGQPKAAPSVTLFPPSSEELQANKATLVCLISDFYPGAVTVAWKADSSPVKAGVETTTPSKQSNNKYAASSYLSLTPEQWKSHRSYSCQVTHEGSTVEKTVAPTECS
modifications: IgG heavy chain 7; IgG light chain 5
B2: N3-8-5: N3-8 derivative antibody; HC SEQ ID NO: 105, LC SEQ ID NO: 113 (antibody)
heavy: B1 heavy
light: B1 light with R51S
modifications: IgG heavy chain 7; IgG light chain 4
B3: N3-8-1: N3-8 derivative antibody; HC SEQ ID NO: 103, LC SEQ ID NO: 111 (antibody)
heavy: B1 heavy with L99M
light: B1 light with R51D, N53S, Q54N
modifications: IgG heavy chain 6; IgG light chain 3
B4: N3-8-4: N3-8 derivative antibody; HC SEQ ID NO: 105, LC SEQ ID NO: 111 (antibody)
heavy: B1 heavy
light: B1 light with R51D, N53S, Q54N
modifications: IgG heavy chain 7; IgG light chain 3
B5: N3-8-2: N3-8 derivative antibody; HC SEQ ID NO: 103, LC SEQ ID NO: 113 (antibody)
heavy: B1 heavy with L99M
light: B1 light with R51S
modifications: IgG heavy chain 6; IgG light chain 4
B6: N3-8-3: N3-8 derivative antibody; HC SEQ ID NO: 103, LC SEQ ID NO: 115 (antibody)
heavy: B1 heavy with L99M
light: B1 light
modifications: IgG heavy chain 6; IgG light chain 5
B7: N3-1: improved N3 antibody; HC SEQ ID NO: 89, LC SEQ ID NO: 107 (protein)
chain 1: B1 heavy with P53Y, Y54D, S55N, R57N, I58T, C96S, L99M
chain 2: QSVLTQPPSASGTPGQRVTISCTGSSSNIGSNYVTWYQQLPGTAPKLLIYDNSNRPSGVPDRFSGSKSGTSASLAISGLQSEDEADYYCASFSDELGAYVFGGGTKLTVLRTVAAPSVFIFPPSDEQLKSGTASVVCLLNNFYPREAKVQWKVDNALQSGNSQESVTEQDSKDSTYSLSSTLTLSKADYEKHKVYACEVTHQGLSSPVTKSFNRGEC

System: not listed separately
Assay: Thermal stability, Protein thermal shift Dye kit
Type: physicochemical
Details: antibody 1 mg/ml, 100 μl
Protocol: In addition, the thermal stability of the antibody was measured using 100 μl of the purified antibodies at a concentration of 1 mg/ml. Protein thermal shift Dye kit (Thermofisher) was performed 4 times with Quant Studio 3 Real-time PCR equipment (Thermofisher).

Which “Thermal stability Tm1” value does the source give for B1 here?
Its value is 71.0.

For B2, which “Thermal stability Tm1” value is on record?
Its value is 72.9.

With B3 as the molecule, how does the “Thermal stability Tm1” value read?
Its value is 69.94.

Which “Thermal stability Tm1” value does the source give for B4 here?
The value was 70.31.

With B5 as the molecule, how does the “Thermal stability Tm1” value read?
The value was 72.41.

With B6 as the molecule, how does the “Thermal stability Tm1” value read?
The value was 71.02.

Same assay, conditions: antibody 1 mg/ml; ‘—’ refers to the same value as Tm1

With B1 as the molecule, how does the “Thermal stability Tm2” value read?
Its value is 76.97.

With B6 as the molecule, how does the “Thermal stability Tm2” value read?
The value was 76.31.

Target: T1, KRS fragment (1-207 aa) (Homo sapiens, UniProt Q15046)
T1 construct: Using KRS fragment (1-207 aa) purified protein as an antigen
T1 sequence (Q15046 1-207): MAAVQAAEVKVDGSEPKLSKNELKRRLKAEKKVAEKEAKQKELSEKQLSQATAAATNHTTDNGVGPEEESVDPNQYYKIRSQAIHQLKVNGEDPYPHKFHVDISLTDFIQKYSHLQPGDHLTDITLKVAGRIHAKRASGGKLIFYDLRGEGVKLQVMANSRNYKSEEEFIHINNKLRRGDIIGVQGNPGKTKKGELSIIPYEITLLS
Assay: SPR with KRS fragment (1-207 aa) purified protein
Type: binding
Details: Biacore T200, 25° C., antibody immobilized, antigen 4.8 nM-1250 nM
Protocol: There was no significant difference in binding ability between KRS and the improved antibodies, N3-1, N3-3, N3-4, and N3-5. Thus, using the representative N3-1 IgG antibody among the improved antibodies selected in the Example 8-2, the affinity of the parent antibody, N3 antibody and KRS N-terminus was more specifically compared. Using KRS fragment (1-207 aa) purified protein as an antigen, the binding ability between N3 antibody and N3-1 antibody (IgG) was analyzed through Surface Plasmon Resonance (SPR). The SPR experiment was performed using a Biacore T200 (GE Healthcare) equipped with a Series S sensor chip CM5 (GE Healthcare) at 25° C. After the antibody was immobilized on the chip using an amine coupling kit (GE Healthcare), the antigen was diluted 4 times in PBS solution in the range of 4.8 nM-1250 nM and flowed for 60 seconds. Thereafter, PBS was flowed for 300 seconds. The obtained data was analyzed with Biacore T200 Evaluation software v2.0 (GE Healthcare).

Which Kd does the source give for B7 here?
The Kd was 31 nM.
